Reference: the supplement of paper PMC11417369
The list shows a part of the results.

The sequences below were run on PfHDP1 homeodomain (GST-tagged) (assay: gcPBM binding intensity (ln(normalized median fluorescence intensity)); higher = stronger DNA binding).
Summary of the method: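 An Agilent 4 × 180k array carrying primer-extended double-stranded 36-bp intergenic genomic probes and negative controls received GST-tagged P. falciparum DNA-binding domains expressed in E. coli, about 25 μg on average, for 1 h. The binding buffer contained 1× PBS, 1% milk, 0.2 mg/ml BSA, 0.5% salmon testes DNA and 0.03% Triton X-100. Binding intensity is the top Masliner-normalised natural-log median intensity across replicate spots of either probe orientation, read after Alexa488 anti-GST antibody staining and a 488 nm scan.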

Sequence | gcPBM binding intensity (ln)
ATTTTATAATTTATATCACACACATATATATATAGT [CACACA_site7885] | 6.73
CATATTATTTAAACATGTACTCACATATAAATATAA [XGTACX_site6096] | 6.31
TAAAAAAAAAAAATGTGTACATATTATATATATCTT [XGTACX_site2615] | 6.08
TTTTTTATTATTATGTGTACGAATATGTGCATATAA [XGTACX_site1364] | 9.93
TATAACAAGTAATGTTGTACATTATATTATGTAATA [XGTACX_site2769] | 6.07
ATGAGTATACTAAGAACACACAAGTTACTTGGTGTT [CACACA_site4981] | 6.42
GTTACACAAACAAACACACACACACGCACGCACAAA [CACACA_site7191] | 7.87
TTTTTTCTCTATATATGTACATATAAAAAATATATC [XGTACX_site6382] | 6.8
AATACACGCAAACACACACACACACCCACATATATA [CACACA_site638] | 7.47
ATATATAATATATGTGGTACGCAAAATATTATATTA [XGTACX_site4969] | 6.3
TTATATATAAATGAAAGTACAAAACAGGAAAGAATA [XGTACX_site1076] | 7.66
AATGATATATTATAAACACACAAAGATGGATATATA [CACACA_site7349] | 6.42
GAACATTTCACATGGTGTACTCTCTTTTTCAAATAA [XGTACX_site1632] | 6.21
TTTATATTATAATATAATAATGATCTTAATTTTTTT [XGTACX_negctrl_site100] | 6.15
TCAATATACCAAAAATGTACAAAAAATAAACAATAT [XGTACX_site8251] | 7.19
TTTATTTTACAAAAAAGTACAAGAAGAAATATCAAT [XGTACX_site7812] | 6.57
ATATTTAGAATGTTCCTACACACCAAATTTAAGTGG [CACACA_site2346] | 6.42
TATTAAAAGTAAAAAACACACATGGATAAATACATA [CACACA_site6048] | 6.54
TGTCCCCCTTTCTATGCACACTTTAAATTATTCAAA [CACACA_site4200] | 9.8
ATTAATCCAAATGAATGTACTTAATAATGTAATTAT [XGTACX_site8946] | 5.83
AAAAAAAAAATACATACACACACACCCACCCATATA [CACACA_site9187] | 7.4
ATATATATTATATGCACACTTATATTTCATTAGATT [CACACA_site2599] | 10.3
TATTATTTATTATATGCACACATCGAACTATTATTT [CACACA_site2544] | 9.78

Sequence | gcPBM binding intensity (ln)
TATTCGAAAGAATAGGCATGCAAACATATCTTATTA [TGCATGCA_site147] | 6.32
ATATAATATTAGTGCACACACAAAAATGTACTAAAC [CACACA_site632] | 10.4
AAACATATAAATCACGGTACACATTATTGAAAGTGT [XGTACX_site2966] | 6.41
TTCTATATTATATATGCATGTGTTATTCTTATTTTC [TGCATGCA_site92] | 6.81
ATAAAGAAACATATATGTACTTATATATATATATAT [XGTACX_site5625] | 9.18
TTATAATTTTTTTTTGCATGTGGGTTTTTTTTTGTT [TGCATGCA_site968] | 6.72
TTTCAATACTGAAACTGTACTTGTTTTACTTCTATT [XGTACX_site5924] | 6.37
CGAAATCATATGTACACACACATATATATATATATA [CACACA_site2151] | 9.44
TATATATATGTATACACACATACAAATATGTAAAAA [CACACA_site3720] | 6.7
AAATAAAGCACACCGACACACACATATATATATATA [CACACA_site8256] | 9.21
ATTGTATCTGTATATGCACACAATATCTGTACTTCT [CACACA_site5445] | 10.1
TCATCATATTATATATGTACATATATAATAATTTAT [XGTACX_site1625] | 6.57
AAATAATTAAAAAAAAGTACACATGTGACTACATAT [XGTACX_site8767] | 6.88
ATTGAAAAATAAAAATGTACACATGTAGCATACCAT [XGTACX_site3275] | 7.17
AATATATCGCATAGTTGTACAGAATTTTTACTTTTA [XGTACX_site8192] | 6.33
TATAATCAATGCCAAAGTACATATTAATATATTTAT [XGTACX_site4558] | 6.32
TATATAATATTACGTTGTACACTTTAATCTCCCTTC [XGTACX_site5577] | 6.94
ACTAATATGCAATATTGTACATATATATAGAAATAT [XGTACX_site5273] | 7.76
ACCATTTGAAAATTCACACACTTTATTTTGTTATAT [CACACA_site5976] | 6.85
TTTTTTGACATTCCTTTTAATAATTAACGAAAGGCA [GTGCAC_negctrl_site377] | 6.13
CTTAAAATGATAATATGTACACATAAATAATATATA [XGTACX_site8330] | 6.52
CACTTTAATTTATGCACACATATGGAACAACAGCCA [CACACA_site994] | 10.6
